# The other results are listed elsewhere or left out.
# B1: GS7807H-bfa-490-18-490 (Bacteroides fragilis) (protein)
# chain: GNLEEMNIDPDNATQTHPKLLLTQICMNAFKRGTDGMYATKKVIQADGESADQYYKWTRGSFGYYDNLRNVQKMGEEAERVNAPVYTALTKFFRAYYFYELTLRFGDIPYSQALKGEKEEIYTPEYDAQEDVFAGILQELREADEILANDASVIDGDIIYNGNSTQWRKLINSFRLKVLMTLSNHTTVGNINIASEFKNIATNSPLMNSLADNGQLVYLDQQGNRYPQFNAQWSGYYMDDTFIQRMRERRDPRLFIFSAQTNKGKTEGKPIDDFSSYEGGDPAAPYSDAIIKVSEGTISPINDRFRTDPIVEPTMLMGYAELQQILAEAVVRGWISGNAQTYYEKGIRASFSFYETHAKDYAGYLNENAVAQYLKEPLVDFTQASGTEEQIERIIMQKYLVTFYQGNWDSFYEQLRTGYPDFRRPAGTEIPKRWMYPQGEYDNNGTNVETAITRQFGAGNDKINQATWWQKKS
# What was measured:
# Assay in all cases: glycan array binding signal (z-score within array); higher = stronger binding
# Conditions in all cases: glycan notation: IUPAC condensed, linker removed
# [1] = target: Gal(b1-4)GlcNAc(b1-3)Gal(b1-4)GlcNAc(b1-3)Gal(b1-4)GlcNAc(b1-2)Man(a1-3)[Gal(b1-4)GlcNAc(b1-3)Gal(b1-4)GlcNAc(b1-3)Gal(b1-4)GlcNAc(b1-2)Man(a1-6)]Man(b1-4)GlcNAc(b1-4)GlcNAc
# In short: (§1)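 Arrays were curated from the Consortium for Functional Glycomics database, 3228 in total, and kept only where the protein sequence was available. Binding is expressed as a within-array Z-score. This score was averaged across arrays of the same protein sequence at different concentrations or buffers and across linkers, and negative values can be read as non-binding.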
# [2] = target: Gal(b1-4)GlcNAc(b1-3)Gal(b1-4)GlcNAc(b1-3)Gal(b1-4)GlcNAc(b1-2)Man(a1-3)[Gal(b1-4)GlcNAc(b1-3)Gal(b1-4)GlcNAc(b1-3)Gal(b1-4)GlcNAc(b1-2)Man(a1-6)]Man(b1-4)GlcNAc(b1-4)[Fuc(a1-6)]GlcNAc
# In short: as §1
# [3] = target: Gal(b1-4)GlcNAc(b1-3)Gal(b1-4)GlcNAc(b1-3)Gal(b1-4)GlcNAc(b1-2)[Gal(b1-4)GlcNAc(b1-3)Gal(b1-4)GlcNAc(b1-3)Gal(b1-4)GlcNAc(b1-6)]Man(a1-6)[Gal(b1-4)GlcNAc(b1-3)Gal(b1-4)GlcNAc(b1-3)Gal(b1-4)GlcNAc(b1-2)Man(a1-3)]Man(b1-4)GlcNAc(b1-4)[Fuc(a1-6)]GlcNAc
# In short: as §1
# [4] = target: Gal(b1-4)GlcNAc(b1-3)Gal(b1-4)GlcNAc(b1-3)Gal(b1-4)GlcNAc(b1-3)Gal(b1-4)GlcNAc(b1-2)Man(a1-3)[Gal(b1-4)GlcNAc(b1-3)Gal(b1-4)GlcNAc(b1-3)Gal(b1-4)GlcNAc(b1-3)Gal(b1-4)GlcNAc(b1-2)Man(a1-6)]Man(b1-4)GlcNAc(b1-4)GlcNAc
# In short: as §1
# [5] = target: Gal(b1-4)GlcNAc(b1-3)Gal(b1-4)GlcNAc(b1-3)Gal(b1-4)GlcNAc(b1-3)Gal(b1-4)GlcNAc(b1-2)Man(a1-3)[Gal(b1-4)GlcNAc(b1-3)Gal(b1-4)GlcNAc(b1-3)Gal(b1-4)GlcNAc(b1-3)Gal(b1-4)GlcNAc(b1-2)Man(a1-6)]Man(b1-4)GlcNAc(b1-4)[Fuc(a1-6)]GlcNAc
# In short: as §1
# [6] = target: Gal(b1-4)GlcNAc(b1-3)Gal(b1-4)GlcNAc(b1-3)Gal(b1-4)GlcNAc(b1-3)Gal(b1-4)GlcNAc(b1-2)[Gal(b1-4)GlcNAc(b1-3)Gal(b1-4)GlcNAc(b1-3)Gal(b1-4)GlcNAc(b1-3)Gal(b1-4)GlcNAc(b1-6)]Man(a1-6)[Gal(b1-4)GlcNAc(b1-3)Gal(b1-4)GlcNAc(b1-3)Gal(b1-4)GlcNAc(b1-3)Gal(b1-4)GlcNAc(b1-2)Man(a1-3)]Man(b1-4)GlcNAc(b1-4)[Fuc(a1-6)]GlcNAc
# In short: as §1
# [7] = target: Gal(b1-4)GlcNAc(b1-3)Gal(b1-4)GlcNAc(b1-3)Gal(b1-4)GlcNAc(b1-3)Gal(b1-4)GlcNAc(b1-3)Gal(b1-4)GlcNAc(b1-2)Man(a1-3)[Gal(b1-4)GlcNAc(b1-3)Gal(b1-4)GlcNAc(b1-3)Gal(b1-4)GlcNAc(b1-3)Gal(b1-4)GlcNAc(b1-3)Gal(b1-4)GlcNAc(b1-2)Man(a1-6)]Man(b1-4)GlcNAc(b1-4)GlcNAc
# In short: as §1
# [8] = target: Gal(b1-4)GlcNAc(b1-3)Gal(b1-4)GlcNAc(b1-3)Gal(b1-4)GlcNAc(b1-3)Gal(b1-4)GlcNAc(b1-3)Gal(b1-4)GlcNAc(b1-2)Man(a1-3)[Gal(b1-4)GlcNAc(b1-3)Gal(b1-4)GlcNAc(b1-3)Gal(b1-4)GlcNAc(b1-3)Gal(b1-4)GlcNAc(b1-3)Gal(b1-4)GlcNAc(b1-2)Man(a1-6)]Man(b1-4)GlcNAc(b1-4)[Fuc(a1-6)]GlcNAc
# In short: as §1
# [9] = target: Gal(b1-4)GlcNAc(b1-3)Gal(b1-4)GlcNAc(b1-3)Gal(b1-4)GlcNAc(b1-3)Gal(b1-4)GlcNAc(b1-3)Gal(b1-4)GlcNAc(b1-2)[Gal(b1-4)GlcNAc(b1-3)Gal(b1-4)GlcNAc(b1-3)Gal(b1-4)GlcNAc(b1-3)Gal(b1-4)GlcNAc(b1-3)Gal(b1-4)GlcNAc(b1-6)]Man(a1-6)[Gal(b1-4)GlcNAc(b1-3)Gal(b1-4)GlcNAc(b1-3)Gal(b1-4)GlcNAc(b1-3)Gal(b1-4)GlcNAc(b1-3)Gal(b1-4)GlcNAc(b1-2)Man(a1-3)]Man(b1-4)GlcNAc(b1-4)[Fuc(a1-6)]GlcNAc
# In short: as §1
# [10] = target: Gal(b1-4)GlcNAc(b1-3)Gal(b1-4)GlcNAc(b1-3)Gal(b1-4)GlcNAc(b1-3)Gal(b1-4)GlcNAc(b1-3)Gal(b1-4)GlcNAc(b1-3)Gal(b1-4)GlcNAc(b1-2)Man(a1-3)[Gal(b1-4)GlcNAc(b1-3)Gal(b1-4)GlcNAc(b1-3)Gal(b1-4)GlcNAc(b1-3)Gal(b1-4)GlcNAc(b1-3)Gal(b1-4)GlcNAc(b1-3)Gal(b1-4)GlcNAc(b1-2)Man(a1-6)]Man(b1-4)GlcNAc(b1-4)GlcNAc
# In short: as §1
# [11] = target: Gal(b1-4)GlcNAc(b1-3)Gal(b1-4)GlcNAc(b1-3)GalNAc
# In short: as §1
# [12] = target: Gal(b1-4)GlcNAc(b1-3)Gal(b1-4)GlcNAc(b1-3)[Gal(b1-4)GlcNAc(b1-3)Gal(b1-4)GlcNAc(b1-6)]GalNAc
# In short: as §1
# [13] = target: Gal(b1-4)GlcNAc(b1-3)Gal(b1-4)GlcNAc(b1-6)[Gal(b1-3)]GalNAc
# In short: as §1
# [14] = target: Gal(b1-4)GlcNAc(b1-3)Gal(b1-4)[Fuc(a1-3)]GlcNAc(b1-3)Gal(b1-4)[Fuc(a1-3)]GlcNAc
# In short: as §1
# [15] = target: Gal(b1-4)GlcNAc(b1-3)GalNAc
# In short: as §1
# [16] = target: Gal(b1-4)GlcNAc(b1-3)[Fuc(a1-3)GlcNAc(b1-6)]Gal(b1-4)Glc
# In short: as §1
# [17] = target: Gal(b1-4)GlcNAc(b1-3)[Gal(b1-4)GlcNAc(b1-6)]Gal(b1-4)GlcNAc
# In short: as §1
# [18] = target: Gal(b1-4)GlcNAc(b1-3)[GlcNAc(b1-6)]Gal(b1-4)GlcNAc
# In short: as §1
# [19] = target: Gal(b1-4)GlcNAc(b1-6)Gal(b1-4)GlcNAc
# In short: as §1
binder,measurement,setting,value
B1,glycan array binding signal (z-score),[1],2.19
same,glycan array binding signal (z-score),[2],0.057
same,glycan array binding signal (z-score),[3],1.09
same,glycan array binding signal (z-score),[4],0.805
same,glycan array binding signal (z-score),[5],2.51
same,glycan array binding signal (z-score),[6],2.08
same,glycan array binding signal (z-score),[7],1.71
same,glycan array binding signal (z-score),[8],2.17
same,glycan array binding signal (z-score),[9],0.502
same,glycan array binding signal (z-score),[10],-0.165
same,glycan array binding signal (z-score),[11],-0.561
same,glycan array binding signal (z-score),[12],-0.095
same,glycan array binding signal (z-score),[13],-0.617
same,glycan array binding signal (z-score),[14],-0.649
same,glycan array binding signal (z-score),[15],-0.83
same,glycan array binding signal (z-score),[16],-0.56
same,glycan array binding signal (z-score),[17],1.46
same,glycan array binding signal (z-score),[18],1.12
same,glycan array binding signal (z-score),[19],-0.133
